Assay results from PubChem BioAssay AID504845 (National Center for Advancing Translational Sciences (NCATS), 2011).
Screen size: about 390,000 compounds; about 150 (0.038%) were called active. The inconclusive results got no clear call from the source; some entries with a clear call stand among them for comparison. The call rests on the fitted dose curve; in most records, active means well fitted inhibition curve with a large enough effect; inconclusive means small, poorly fitted or top-dose-only effect; inactive means no such curve, though single readings can be large or run the other way. Potencies of inconclusive entries are doubtful fits and often do not repeat.

The compounds below were run against Regulator of G-protein signaling 4 (Homo sapiens) (UniProt P49798) (assay: Inhibitors of Regulator of G Protein Signaling (RGS) 4: qHTS). Conditions: Transcreener GDP fluorescence polarization, RGS4-accelerated GTP hydrolysis; series mostly up to 114 µM; activity change, negative = inhibition: at the top concentration.
In short: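 MLSMR compounds (23 nl, pin-transferred) preincubated 10 min at room temperature with a 500nM (2x) first reagent, then RGS4 at 900nM (2x) plus Transcreener GDP mix added; fluorescence polarization (620/688 nm) read before and after 90 min at 30 °C.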
Further: nearly all actives have a fitted effect of over 75% in size.
On the % scale 0 is the no-effect control and ±100 the full control effect; potency means the concentration at half of the fitted maximal effect; tags describe the fitted curve by direction and shape.

UniProt P49798, sequence (P49798 whole entry, looked up): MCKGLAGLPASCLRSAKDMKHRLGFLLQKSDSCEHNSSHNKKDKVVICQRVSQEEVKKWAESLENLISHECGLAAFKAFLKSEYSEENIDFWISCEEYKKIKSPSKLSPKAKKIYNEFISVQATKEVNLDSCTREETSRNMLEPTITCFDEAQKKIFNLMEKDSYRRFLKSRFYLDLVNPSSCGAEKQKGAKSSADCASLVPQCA

Row | SMILES | activity change, negative = inhibition | Potency
1 | COc1ccc(-c2cn3nc(SCC(=O)Nc4ccc(C)c(Cl)c4)ccc3n2)cc1 | inactive: 9.59% | –
2 | O=C(O)C1Nc2c(Cl)cc(Cl)c(Cl)c2C2C=CCC12 (centres undefined) | – | inconclusive: 79.4 µM [inhibitor, single point]
3 | COc1ccc(CCNC(=O)CCn2c(=O)c3ccccc3n(CC(=O)Nc3ccc(C)cc3C)c2=O)cc1OC | – | inconclusive: 100 µM [inhibitor, partial curve, poor fit]
4 | C=CCN(CC=C)C(=S)NC(=O)/C=C/c1ccccc1 | – | inconclusive: 44.7 µM [inhibitor, partial curve, poor fit]
5 | CC[C@H]1C=C[C@@H](C(C(=O)OC)C(=O)OC)CN1C(C)=O | – | inconclusive: 31.6 µM [inhibitor, full curve, poor fit]
6 | O=C(c1cccnc1)N1CCN(c2ccc([N+](=O)[O-])cc2Cl)CC1 | inactive: -2.89% | –
7 | COc1ccccc1-n1c(-c2ccc(Cl)cc2)c[nH]c1=S | – | inconclusive: 112 µM [inhibitor, partial curve, poor fit]
8 | CCCCCCCCCn1c2c(c(=N)c3c1CCC3)CCC2 | inactive: -17.9% | –
9 | O=C(NC(=S)NNC(=O)c1cccs1)c1ccccc1 | – | inconclusive: 79.4 µM [inhibitor, partial curve, poor fit]
10 | CCc1ccc(-n2cccc2/C=C2/C(=N)N3C(=NC2=O)SN=C3S(C)(=O)=O)cc1 | – | inconclusive: 39.8 µM [inhibitor, partial curve, poor fit]
11 | O=C(NNC(=S)Nc1ccc(Cl)c(Cl)c1)c1cccc([N+](=O)[O-])c1 | – | inconclusive: 79.4 µM [inhibitor, partial curve, poor fit]
12 | Cc1c(-c2ccccc2)nc2ccccc2c1C(=O)NCc1cccs1 | – | inconclusive: 79.4 µM [inhibitor, partial curve, poor fit]
13 | COc1cccc(Cn2cccc(NC(=O)Nc3ccccc3C)c2=O)c1 | – | inconclusive: 79.4 µM [inhibitor, partial curve, poor fit]
14 | Cc1nonc1C(=O)N/N=C/c1ccccc1 | – | inconclusive: 44.7 µM [inhibitor, partial curve, poor fit]
15 | O=C(Cn1nc(C(=O)O)c2ccccc2c1=O)NCc1ccco1 | – | inconclusive: 44.7 µM [inhibitor, partial curve, poor fit]
16 | Cc1ccc(/C=C/C(=O)N2CCc3ccccc3C2)cc1 | – | inconclusive: 89.1 µM [inhibitor, single point]
17 | CC(C)=CCC/C(C)=C/CC/C(C)=C/CSCC(=O)O | – | inconclusive: 0.106 µM [inhibitor, full curve, poor fit]
18 | CCOc1ccc(-n2c(-c3ccccc3)c[nH]c2=S)cc1 | – | inconclusive: 100 µM [inhibitor, partial curve, poor fit]
19 | CN(C)c1ncnc2c1NC1=C(S2)C(=NCCCC(=O)O)CC(C)(C)C1 | – | inconclusive: 17.8 µM [inhibitor, full curve, poor fit]
20 | CC(=O)Nc1ccc(SCC(=O)c2ccc(Br)s2)cc1 | – | inconclusive: 44.7 µM [inhibitor, partial curve, poor fit]
21 | CCOC(=O)N1CCN(C(=O)/C=C/c2cccc([N+](=O)[O-])c2)CC1 | – | inconclusive: 56.2 µM [inhibitor, partial curve, poor fit]
22 | CCCCn1c(N)c(C(=S)NC(=O)CC(C)(C)C)c(=O)n(C)c1=O | inactive: -1.8% | –

Row | SMILES | activity change, negative = inhibition | Potency
23 | COc1ccc(N2C(=O)CC(Sc3n[nH]c(-c4cccc(C)c4)n3)C2=O)cc1 (centres undefined) | – | inconclusive: 70.8 µM [inhibitor, partial curve, poor fit]
24 | COC(=O)c1sc(-c2ccc(Cl)cc2)cc1NC(=O)c1ccccc1C(=O)O | inactive: -12.9% | –
25 | O=C(N/N=C/c1c(O)ccc2ccccc12)c1ccc[n+](CCO)c1 | inactive: -36.6% | –
26 | Cc1cc(C)nc(N2N=C(C(F)(F)F)CC2=O)n1 | inactive: 27.5% | –
27 | Cc1cccn2c(=O)c3cc(C(N)=S)c(=N)n(CCCOC(C)C)c3nc12 | – | inconclusive: 50.1 µM [inhibitor, partial curve, poor fit]
28 | NC(=O)c1ncn([C@@H]2O[C@H](CNCc3cccc4c3sc3ccccc34)[C@@H](O)[C@H]2O)n1 | inactive: -2.36% | –
29 | CCOc1ccc(CCN2C(=S)N([C@@H](CC(C)C)CN3CCCC3CN3C(=S)NC[C@@H]3Cc3ccc(O)cc3)C[C@@H]2CC(C)C)cc1 (some centres undefined) | inactive: 6.11% | –
30 | O=S(=O)(c1ccc(Cl)s1)N1CCN(c2ncccn2)CC1 | inactive: -15.1% | –
31 | OCC[C@H]1C[C@@H](O)[C@H](O)[C@@]2(OCCc3ccccc32)O1 | – | inconclusive: 50.1 µM [inhibitor, partial curve, poor fit]
32 | Cc1ccc2nc(SCC(=O)Nc3cccc(F)c3)nc(=O)n2c1 | – | inconclusive: 39.8 µM [inhibitor, full curve, poor fit]
33 | COc1ccccc1N1CCN(CCCCNS(=O)(=O)c2cccc3c(N(C)C)cccc23)CC1 | – | inconclusive: 3.36 µM [inhibitor, single point]
34 | O=c1[nH]cnc(O)c1C1C=CC=CC=C1 | – | inconclusive: 39.8 µM [inhibitor, partial curve, poor fit]
35 | CCCCCNC(=O)CCn1c(=O)oc2ccccc21 | inactive: 22.7% | –
36 | Cc1ccc(Cl)cc1-n1ncc2c(Nc3cccc(C)c3C)ncnc21 | – | inconclusive: 79.4 µM [inhibitor, single point]
37 | C(#Cc1ccccc1)CN1CCN(c2ccccn2)CC1 | – | inconclusive: 89.1 µM [inhibitor, single point]
38 | C#CCOCCOCCOCCNc1nc(N2CCN(C(=O)CCCCCCCCCCNC(=O)[C@H](CCCCN)n3cc(CCO)nn3)CC2)nc(N2CCN(C(=O)CCCCCCCCCCNC(=O)[C@@H]([C@H](C)O)n3cc(C)nn3)CC2)n1 | – | inconclusive: 28.2 µM [inhibitor, full curve, poor fit]
39 | CCC/C(=C1/c2ccccc2C(=O)N1c1ccccc1)c1ccc2c(c1)OCCO2 | inactive: -5.13% | –
40 | COCCCNC(=O)CC(NS(=O)(=O)c1ccc(C)cc1)c1ccc(OC)cc1 (centres undefined) | inactive: 9.64% | –
41 | CC(=O)N1N=C2/C(=C/c3ccccc3)CCCC2C1c1ccccc1 (centres undefined) | – | inconclusive: 20 µM [inhibitor, full curve, poor fit]
42 | CCC(=O)N(Cc1ccco1)c1nc(-c2ccc(OC)cc2)cs1 | – | inconclusive: 79.4 µM [inhibitor, single point]
43 | O=C(O)Cn1cc(C(=S)N2CCOCC2)c2ccccc21 | – | inconclusive: 79.4 µM [inhibitor, single point]
44 | CC(C(Sc1ccccc1N)c1ccccc1)[N+](=O)[O-] (centres undefined) | – | inconclusive: 31.6 µM [inhibitor, full curve, poor fit]

Row | SMILES | activity change, negative = inhibition | Potency
45 | Cc1ccc(-n2c([S-])c(C(=O)Nc3ccc(OC(F)F)cc3)[n+]3ccc(C(=O)NCCO)cc23)cc1C | – | inconclusive: 70.8 µM [inhibitor, partial curve, poor fit]
46 | CCN(CC)CC(=O)Nc1scc2c1c(=O)oc1ccccc12 | inactive: 5.14% | –
47 | O=C(NCc1ccccc1)c1ccc(-c2ccccc2C(F)(F)F)o1 | inactive: -21.2% | –
48 | COC(=O)c1cc(C(=O)N2CCN(c3cccc(Cl)c3)CC2)cc([N+](=O)[O-])c1 | inactive: 1.29% | –
49 | COc1ccc([C@H]2CC(=O)C=C(c3cccc(C(F)(F)F)c3)C2)cc1 | – | inconclusive: 17.8 µM [inhibitor, full curve, poor fit]
50 | CCCCn1c(O)c(/C=C/C=C/C=Nc2ccccc2)sc1=S | – | inconclusive: 44.7 µM [inhibitor, partial curve, poor fit]
51 | O=C(NCC(F)(F)F)c1ccc(S(=O)(=O)Nc2ccccc2N2CCCC2)cc1 | – | inconclusive: 56.2 µM [inhibitor, partial curve, poor fit]
52 | COc1ccc(C2=Nn3c(nnc3-c3ccccc3F)SC2)cc1OC1CCCC1 | inactive: -31.6% | –
53 | CC(NC(=O)COC(=O)C1=COCCO1)C12CC3CC(CC(C3)C1)C2 (centres undefined) | – | inconclusive: 50.1 µM [inhibitor, partial curve, poor fit]
54 | COc1cc(C#N)ccc1OCC(=O)Nc1ccc(C)c(S(=O)(=O)N2CCOCC2)c1 | inactive: 12.9% | –
55 | COc1ccccc1-c1cc(C(F)(F)F)nc(N2CCCC2)n1 | inactive: 32.9% | –
56 | Cc1ccccc1C(=O)OC1OC(=O)C(Cl)=C1Nc1ccc(C(=O)O)cc1 (centres undefined) | – | inconclusive: 31.6 µM [inhibitor, full curve, poor fit]
57 | O=S1(=O)C=C(Sc2nnc(-c3ccccc3)o2)c2ccccc21 | – | inconclusive: 50.1 µM [inhibitor, partial curve, poor fit]
58 | O=C(c1ccc([N+](=O)[O-])cc1)N1CCN(c2ncc(Br)cn2)CC1 | – | inconclusive: 50.1 µM [inhibitor, partial curve, poor fit]
59 | Cc1nn(C)c(C)c1CNC(=O)Nc1cccc(Cl)c1 | inactive: -0.11% | –
60 | N#Cc1cc([N+](=O)[O-])ccc1Oc1cccc(/C=N/NC(=O)c2cccc(Cl)c2)c1 | – | inconclusive: 89.1 µM [inhibitor, single point]
61 | Cc1cc(NCc2ccccc2Cl)n2nnnc2n1 | – | inconclusive: 89.1 µM [inhibitor, single point]
62 | COc1ccc(NC(=O)COC(=O)C2CCC(C(C)(C)C)CC2)c([N+](=O)[O-])c1 (centres undefined) | – | inconclusive: 100 µM [inhibitor, single point]
63 | O=C(c1cc(-c2ccc(O)cc2)on1)N1CCN(c2ccccc2)CC1 | – | inconclusive: 79.4 µM [inhibitor, single point]
64 | CC(NC(=O)Cn1cc(C(=O)C2CC2)c2ccccc21)c1ccccc1 (centres undefined) | – | inconclusive: 50.1 µM [inhibitor, partial curve, poor fit]
